Experimental data published in the supplement of paper PMC4967469.

These cell lines were tested with NC(=O)[C@@H](CCC(F)(F)F)N(Cc1ccc(-c2ncon2)cc1F)S(=O)(=O)c1ccc(Cl)cc1 [BMS-708163] (assay: Viability of human cancer cell lines after 72 h of drug (GDSC screen)). Conditions: screen: GDSC drug entry 205; top dose inferred.
Protocol: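 Human cancer cell lines in 384-well plates, medium with 10% serum, drug for 72 h over a 256-fold dose range (nine 2-fold or five 4-fold steps up to the top dose). Adherent lines were fixed and stained with the nucleic acid dye Syto60, suspension lines read with resazurin; signal relative to control wells, capped at 0 and 100%. One two-parameter sigmoid per drug and line, fitted in a mixed model over all curves with the slope shared within a line.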
“KMS-11 (myeloma, suspension, top dose 10.24 µM)” was tested, and the AUC was 0.991 and the IC50 was greater than 10.2 µM.
Work on “OVCAR-4 (ovary, adherent, top dose 10.24 µM)” yielded an AUC of 0.97 and an IC50 greater than 10.2 µM.
“SIG-M5 (acute myeloid leukaemia, suspension, top dose 10.24 µM)” was tested, and the AUC was 0.986 and the IC50 was greater than 10.2 µM.
For “NB13 (neuroblastoma, adherent, top dose 10.24 µM)”, the AUC was 0.988 and the IC50 was greater than 10.2 µM.
Cell Line “NCI-H358 (lung adenocarcinoma, adherent, top dose 10.24 µM)” has an AUC of 0.984 and an IC50 greater than 10.2 µM.
“DSH1 (bladder, adherent, top dose 10.24 µM)” was tested, and the AUC was 0.984 and the IC50 was greater than 10.2 µM.
“EW-13 (Ewing sarcoma, suspension, top dose 10.24 µM)” was tested, and the AUC was 0.964 and the IC50 was greater than 10.2 µM.
“D-502MG (glioma, adherent, top dose 10.24 µM)” was tested, and the AUC was 0.918 and the IC50 was greater than 10.2 µM.
“BFTC-909 (kidney, adherent, top dose 10.24 µM)” was tested, and the AUC was 0.987 and the IC50 was greater than 10.2 µM.
With “REH (B-cell leukaemia, suspension, top dose 10.24 µM)” the AUC was 0.971 and the IC50 was greater than 10.2 µM.
“MPP-89 (mesothelioma, adherent, top dose 10.24 µM)” gave an AUC of 0.981 and an IC50 greater than 10.2 µM.
Work on “HT-1197 (bladder, adherent, top dose 10.24 µM)” yielded an AUC of 0.959 and an IC50 greater than 10.2 µM.
In the case of “NCI-H441 (lung adenocarcinoma, adherent, top dose 10.24 µM)”, the AUC is reported as 0.981 and the IC50 is reported as greater than 10.2 µM.
Cell Line “NB6 (neuroblastoma, adherent, top dose 10.24 µM)” has an AUC of 0.965 and an IC50 greater than 10.2 µM.
For “CAL-12T (non-small cell lung carcinoma, adherent, top dose 10.24 µM)”, the AUC was 0.983 and the IC50 was greater than 10.2 µM.
In the case of “CCF-STTG1 (glioma, adherent, top dose 10.24 µM)”, the AUC is reported as 0.988 and the IC50 is reported as greater than 10.2 µM.
Work on “TGBC11TKB (stomach, adherent, top dose 10.24 µM)” yielded an AUC of 0.986 and an IC50 greater than 10.2 µM.
In the case of “H2869 (mesothelioma, adherent, top dose 10.24 µM)”, the AUC is reported as 0.946 and the IC50 is reported as greater than 10.2 µM.
“A673 (rhabdomyosarcoma, adherent, top dose 10.24 µM)” gave an AUC of 0.984 and an IC50 greater than 10.2 µM.
“HT-3 (cervix, adherent, top dose 10.24 µM)” showed an AUC of 0.987 and an IC50 greater than 10.2 µM.
In the case of “H2461 (mesothelioma, adherent, top dose 10.24 µM)”, the AUC is reported as 0.983 and the IC50 is reported as greater than 10.2 µM.
Work on “PL18 (pancreas, adherent, top dose 10.24 µM)” yielded an AUC of 0.988 and an IC50 greater than 10.2 µM.
In the case of “NCI-H1299 (large cell lung carcinoma, adherent, top dose 10.24 µM)”, the AUC is reported as 0.983 and the IC50 is reported as greater than 10.2 µM.
Cell Line “UACC-62 (melanoma, adherent, top dose 10.24 µM)” has an AUC of 0.986 and an IC50 greater than 10.2 µM.
Work on “TE-9 (oesophagus, adherent, top dose 10.24 µM)” yielded an AUC of 0.987 and an IC50 greater than 10.2 µM.
Cell Line “A101D (melanoma, adherent, top dose 10.24 µM)” has an AUC of 0.981 and an IC50 greater than 10.2 µM.
In the case of “RPMI-7951 (melanoma, adherent, top dose 10.24 µM)”, the AUC is reported as 0.978 and the IC50 is reported as greater than 10.2 µM.
In the case of “BL-41 (Burkitt lymphoma, suspension, top dose 10.24 µM)”, the AUC is reported as 0.987 and the IC50 is reported as greater than 10.2 µM.
With “DJM-1 (skin, adherent, top dose 10.24 µM)” the AUC was 0.989 and the IC50 was greater than 10.2 µM.
With “GOTO (neuroblastoma, adherent, top dose 10.24 µM)” the AUC was 0.984 and the IC50 was greater than 10.2 µM.
Work on “P32-ISH (Burkitt lymphoma, suspension, top dose 10.24 µM)” yielded an AUC of 0.995 and an IC50 greater than 10.2 µM.

Same assay, conditions: top dose 5 µM; screen: GDSC drug entry 1072; top dose inferred
In the case of NCC010 (kidney, adherent), the AUC is reported as 0.985 and the IC50 is reported as greater than 5 µM.
Work on OV-7 (ovary, adherent) yielded an AUC of 0.972 and an IC50 greater than 5 µM.

A lower IC50 marks a more sensitive line; where the fit passes the top or lowest dose, that dose stands as a limit. AUC is the area under the same curve over the 256-fold range up to the top dose, as a fraction: 1 means no effect, lower means more sensitive. An inferred top dose was calculated from the reported fits. An entry number marks a drug with two screens in the source, which often give different values.
